Test results: the supplement of paper PMC4967469
pIC50: −log10 of the molar value. Lines with a small IC50 respond at low doses; a fit beyond the top or the lowest dose is shown as a bound at that dose. For AUC the same curve is integrated over the 256-fold range of doses and scaled to a fraction; the more sensitive the line, the further below 1. For part of these data: A top dose marked as inferred comes from the curve model; the source does not state it. For part of these data: An entry number marks a drug with two screens in the source, which often give different values.

Legend:
Assay in all cases: Viability of human cancer cell lines after 72 h of drug (GDSC screen)
LFM-A13 = compound: C/C(O)=C(\C#N)C(=O)Nc1cc(Br)ccc1Br [LFM-A13]; conditions: top dose 16 µM; top dose inferred
Description: (§1)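 Human cancer cell lines in 384-well plates, medium with 10% serum, drug for 72 h over a 256-fold dose range (nine 2-fold or five 4-fold steps up to the top dose). Adherent lines were fixed and stained with the nucleic acid dye Syto60, suspension lines read with resazurin; signal relative to control wells, capped at 0 and 100%. One two-parameter sigmoid per drug and line, fitted in a mixed model over all curves with the slope shared within a line.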

TW-37 = compound: CC(C)c1ccccc1Cc1cc(C(=O)Nc2ccc(S(=O)(=O)c3ccccc3C(C)(C)C)cc2)c(O)c(O)c1O [TW-37]; conditions: top dose 5 µM
Description: as §1

Bicalutamide = compound: CC(O)(CS(=O)(=O)c1ccc(F)cc1)C(=O)Nc1ccc(C#N)c(C(F)(F)F)c1 [Bicalutamide]; conditions: top dose inferred
Description: as §1

AUY922 = compound: CCNC(=O)c1noc(-c2cc(C(C)C)c(O)cc2O)c1-c1ccc(CN2CCOCC2)cc1 [AUY922]; conditions: top dose 0.256 µM; top dose inferred
Description: as §1

KIN001-270 = compound: Cc1ccc(Nc2cc(-c3cccc(N4C(=O)c5ccccc5C4=O)c3)ncn2)cc1NS(C)(=O)=O [KIN001-270]; conditions: top dose 20 µM; top dose inferred
Description: as §1

Nilotinib = compound: Cc1cn(-c2cc(NC(=O)c3ccc(C)c(Nc4nccc(-c5cccnc5)n4)c3)cc(C(F)(F)F)c2)cn1 [Nilotinib]; conditions: top dose 2 µM
Description: as §1

Gemcitabine = compound: Nc1ccn([C@@H]2O[C@H](CO)[C@@H](O)C2(F)F)c(=O)n1 [Gemcitabine]; conditions: top dose 1.024 µM
Description: as §1

T0901317 = compound: O=S(=O)(c1ccccc1)N(CC(F)(F)F)c1ccc(C(O)(C(F)(F)F)C(F)(F)F)cc1 [T0901317]; conditions: top dose 10.24 µM; top dose inferred
Description: as §1

MP470 = compound: S=C(NCc1ccc2c(c1)OCO2)N1CCN(c2ncnc3c2oc2ccccc23)CC1 [MP470]; conditions: top dose 20 µM; top dose inferred
Description: as §1

[1] = top dose 1.024 µM, screen: GDSC drug entry 150
[2] = top dose 10 µM, screen: GDSC drug entry 1502

Row | Cell Line | AUC (LFM-A13) | pIC50 (LFM-A13) | AUC (TW-37) | pIC50 (TW-37) | AUC (Bicalutamide; [1]) | pIC50 (Bicalutamide; [1]) | AUC (Bicalutamide; [2]) | pIC50 (Bicalutamide; [2]) | AUC (AUY922) | pIC50 (AUY922) | AUC (KIN001-270) | pIC50 (KIN001-270) | AUC (Nilotinib) | pIC50 (Nilotinib) | AUC (Gemcitabine) | pIC50 (Gemcitabine) | AUC (T0901317) | pIC50 (T0901317) | AUC (MP470) | pIC50 (MP470)
1 | Caov-4 (ovary, adherent) | 0.967 | < 4.80 | 0.49 | 6.54 | 0.98 | < 5.99 | 0.961 | < 5.00 | 0.967 | < 6.59 | 0.943 | < 4.70 | 0.98 | < 5.70 | 0.774 | 6.22 | 0.979 | < 4.99 | 0.819 | 4.72
2 | HCC1143 (breast, adherent) | 0.931 | < 4.80 | 0.687 | 5.89 | 0.978 | < 5.99 | 0.958 | < 5.00 | 0.918 | < 6.59 | 0.95 | < 4.70 | 0.98 | < 5.70 | 0.935 | < 5.99 | 0.98 | < 4.99 | 0.963 | < 4.70
3 | C-4-I (cervix, adherent) | 0.894 | < 4.80 | 0.314 | 7.05 | 0.986 | < 5.99 | – | – | 0.551 | 7.65 | 0.964 | < 4.70 | 0.986 | < 5.70 | 0.448 | 7.34 | 0.975 | < 4.99 | 0.783 | 5.04
4 | 8505C (thyroid, adherent) | 0.95 | < 4.80 | 0.46 | 6.62 | 0.985 | < 5.99 | – | – | 0.409 | 8.05 | 0.948 | < 4.70 | 0.934 | < 5.70 | 0.142 | 8.35 | 0.985 | < 4.99 | 0.959 | < 4.70
5 | NCI-H1688 (small cell lung carcinoma, adherent) | 0.985 | < 4.80 | 0.838 | 5.41 | 0.984 | < 5.99 | 0.977 | < 5.00 | 0.809 | 6.82 | 0.947 | < 4.70 | 0.987 | < 5.70 | 0.826 | 6.15 | 0.979 | < 4.99 | 0.537 | 5.80
6 | D-542MG (glioma, adherent) | 0.967 | < 4.80 | 0.58 | 6.27 | 0.982 | < 5.99 | 0.936 | < 5.00 | 0.806 | 6.78 | 0.916 | < 4.70 | 0.984 | < 5.70 | 0.973 | < 5.99 | 0.976 | < 4.99 | 0.895 | < 4.70
7 | CCK-81 (large intestine, adherent) | 0.988 | < 4.80 | 0.762 | 5.77 | 0.988 | < 5.99 | 0.984 | < 5.00 | 0.824 | 6.85 | 0.966 | < 4.70 | 0.99 | < 5.70 | 0.858 | 6.12 | 0.98 | < 4.99 | 0.915 | < 4.70
8 | PANC-08-13 (pancreas, adherent) | 0.954 | < 4.80 | 0.81 | 5.45 | 0.983 | < 5.99 | 0.957 | < 5.00 | 0.722 | 7.08 | 0.983 | < 4.70 | 0.979 | < 5.70 | 0.792 | 6.21 | 0.971 | < 4.99 | 0.957 | < 4.70
9 | EGI-1 (biliary tract, adherent) | 0.979 | < 4.80 | 0.704 | 5.85 | 0.982 | < 5.99 | 0.957 | < 5.00 | 0.754 | 6.96 | 0.965 | < 4.70 | 0.968 | < 5.70 | 0.62 | 6.82 | 0.973 | < 4.99 | 0.933 | < 4.70
10 | PA-TU-8902 (pancreas, adherent) | 0.965 | < 4.80 | 0.609 | 6.18 | 0.982 | < 5.99 | 0.975 | < 5.00 | 0.582 | 7.56 | 0.973 | < 4.70 | 0.982 | < 5.70 | 0.714 | 6.54 | 0.965 | < 4.99 | 0.907 | < 4.70
11 | TMK-1 (stomach, adherent) | 0.949 | < 4.80 | 0.504 | 6.49 | 0.986 | < 5.99 | – | – | 0.691 | 7.24 | 0.983 | < 4.70 | 0.986 | < 5.70 | 0.696 | 6.63 | 0.98 | < 4.99 | 0.965 | < 4.70
12 | PANC-04-03 (pancreas, adherent) | 0.972 | < 4.80 | 0.654 | 5.96 | 0.977 | < 5.99 | – | – | 0.621 | 7.37 | 0.97 | < 4.70 | 0.96 | < 5.70 | 0.696 | 6.49 | 0.969 | < 4.99 | 0.977 | < 4.70
13 | H2461 (mesothelioma, adherent) | 0.955 | < 4.80 | 0.614 | 6.16 | 0.983 | < 5.99 | 0.969 | < 5.00 | 0.781 | 6.87 | 0.98 | < 4.70 | 0.978 | < 5.70 | 0.84 | 6.01 | 0.983 | < 4.99 | 0.974 | < 4.70
